According to PubChem BioAssay AID686978 (National Center for Advancing Translational Sciences (NCATS), 2013):
Where “and” joins values, the source holds several entries; their conditions need not be identical. Equal values may be shown once. Out of some 420,000 compounds screened, about 64,000 (15%) were called active. The shares of active, inactive and inconclusive entries below differ from those in the screen. The call rests on the fitted dose curve; in most records, active means well fitted inhibition curve with a large enough effect; inconclusive means small, poorly fitted or top-dose-only effect; inactive means flat fitted curve, though single readings scatter. A potency beside an inconclusive call is a rough fit, not a confirmed value.

Assay: qHTS for Inhibitors of human tyrosyl-DNA phosphodiesterase 1 (TDP1): qHTS in cells in absence of CPT; further: nearly all actives have a fitted effect of over 55% in size
Conditions: DT40 Tdp1-/- hTDP1 cells, no CPT, ATP luminescence, 48 h; activity change, negative = growth inhibition: at 46.2 µM (top of the series) unless noted
How it was run: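 Readout: luminescence from CellTiter-Glo after 30 min in the dark at RT. Cells: DT40 Tdp1-/- with stable hTDP1, 400/well. Exposure: compounds alone, ≥48 hr, 37 °C.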
On the % scale 0 is the no-effect control and ±100 the full control effect; potency means the concentration at half of the fitted maximal effect; tags describe the fitted curve by direction and shape.

SMILES	activity change, negative = growth inhibition	Potency
COc1ccc(C(=O)Nc2ccc(NC(=O)c3ccccn3)cn2)cc1	inactive: -20%	
O=C(NCc1ccc(F)cc1)c1cccc2c1C(=O)c1ccc(N3CCC(N4CCCCC4)CC3)cc1S2(=O)=O		inconclusive: 25.9 µM [inhibitor, single point]
Nc1ccc(-c2nc3c(Cl)c(N)ccc3[nH]2)cc1	inactive: -17.9%	
COc1cccc(OC)c1C(=O)N1CCN(c2c(Cc3ccccc3)c(C)nc3ncnn23)CC1	inactive: -21%	
CNCC(=O)N(CC(C)C)c1c(N)n(CC(C)C)c(=O)[nH]c1=O	inactive: 24.1%	
COc1ccc(/C=C/C(=O)Nc2sc(C)c(C)c2C(=O)O)cc1	inactive: 0.817%	
CCOc1cc(CN2CCN(S(=O)(=O)c3ccc(C)cc3)CC2)ccc1OC		active: 16.4 µM
COc1ccc(Nc2c(-c3ccc(N4CCOCC4)cc3)nc3ncccn23)cc1OC	inactive: -25.1%	
Cc1nc2ccccc2c2c(N)cccc12	inactive: 17.8%	
Cc1c(NS(=O)(=O)c2cccc(C(=O)NCc3cccc(Cl)c3)c2)c(=O)n(-c2ccccc2)n1C	inactive: -0.368%	
CC(C)c1cnc2c(c1SCC(=O)N1CCCCC1)c(=O)n(C)c(=O)n2C		inconclusive: 18.4 µM [inhibitor, single point]
Cc1ccc2nc(NC(=O)/C=C/c3ccc4c(c3)OCO4)sc2c1		inconclusive: 29.1 µM [inhibitor, single point]
O=S(=O)(c1ccc2nc(-c3ccco3)c(-c3ccco3)nc2c1)N1CCOCC1		inconclusive: 23.1 µM [inhibitor, single point]
COCCCn1c(Cc2csc(Nc3cccc(Cl)c3)n2)nnc1SCC(=O)OC	inactive: -7.36%	
Cc1ccc(S(=O)(=O)N(C)c2c(C)ccc(S(=O)(=O)N3CCN(C)CC3)c2C)cc1		inconclusive: 23.1 µM [inhibitor, single point]
O=C(CNC(=O)c1ccccc1)Sc1ccccc1		active: 18.4 µM
COc1ccc(S(=O)(=O)N2CCN(Cc3ccccc3)CC2)cc1OC		inconclusive: 29.1 µM [inhibitor, single point]
NS(=O)(=O)c1ccc(-c2ccc(/C=N/NC(=O)c3ccccc3O)o2)cc1	inactive: -25.3%	
CC(=O)Nc1ccc(NC(=O)c2ccc3c(c2)NC(=O)c2ccccc2S3)cc1	inactive: 5.48%	
CCn1c(=O)sc2cc(NS(=O)(=O)c3ccc(C)cc3)ccc21		inconclusive: 18.4 µM [inhibitor, single point]
CC(C)(C)OC(=O)N1CCC(c2c(C(=O)O)cnn2-c2ccc(Cl)cc2)CC1	inactive: -15.1%	
Cc1cc(C(=O)COC(=O)c2ccc(CO)cc2)c(C)n1CC1COc2ccccc2O1 (configuration not stated)		inconclusive: 29.1 µM [inhibitor, single point]
CN(C)/N=C1\CCS(=O)(=O)c2sccc21	inactive: -15.6%	
OB(O)c1csc2ccccc12		active: 11.2 µM
O=[N+]([O-])c1ccc(OCc2n[nH]c(=S)n2-c2ccccc2)cc1	inactive: -1.41%	
CCOc1ccccc1C(=O)NC1CCN(Cc2ccccc2)CC1	inactive: -4.69%	

SMILES	activity change, negative = growth inhibition	Potency
CC1=C(C(=O)OCCOc2ccccc2)C(c2ccsc2)NC(=O)N1C (configuration not stated)		active: 20.6 µM
CCOC(=O)c1ccccc1NC(=O)Cc1ccc(S(=O)(=O)N2CCCC2)s1		inconclusive: 16.4 µM [inhibitor, partial curve]
CCCOc1ccccc1C1CC(=O)NC(C)=C1C(=O)OCC(C)C (configuration not stated)		active: 16.4 µM
Cc1noc(/C=C/N(C)C)c1S(=O)(=O)NC1CCCCC1		inconclusive: 16.4 µM [inhibitor, single point]
CCCN(CCC)CCCNC(=O)c1ccc(CS(=O)(=O)c2c(Cl)cccc2Cl)o1	inactive: 5.65%	
O=c1c2ccccc2nc(-c2ccco2)n1CCc1ccc(O)cc1		active: 5.8 µM
Cc1[nH]n(C)c(=O)c1C(=O)c1c(-c2ccccc2Cl)noc1C	inactive: 6.12%	
CC(=O)CCc1ccc(Oc2nc(-c3cccnc3)nc3ccccc23)cc1		inconclusive: 20.6 µM [inhibitor, single point]
CSc1nc(-c2ccccc2)c(-c2ccccc2)[nH]1		inconclusive: 13 µM [inhibitor, partial curve]
Cc1ccc(SCC(=O)OCC(=O)N(CC(C)C)C2CCS(=O)(=O)C2)cc1C (configuration not stated)	inactive: -25.5%	
c1ccc(COc2ccc(-c3cc4nc(NCc5ccc6c(c5)OCO6)ccn4n3)cc2)cc1		active: 7.31 µM
OCC1(CCOc2ccccc2)CCN(Cc2ccccc2C(F)(F)F)CC1	inactive: -27.3%	
O=c1c2ccccc2oc2cc(NCCCN3CCOCC3)ccc12		inconclusive: 29.1 µM [inhibitor, single point]
Cc1ccc(C)c(N2CCN(C(=O)Cc3ccc(NC4=NC5CS(=O)(=O)CC5S4)cc3)CC2)c1 (configuration not stated)		inconclusive: 29.1 µM [inhibitor, single point]
Cc1cccc(C(=O)Nc2scc(CC(C)C)c2C(=O)O)c1		inconclusive: 14.6 µM [inhibitor, partial curve]
COc1ccc(OCCC(=O)OCC(=O)NCCc2ccccc2)cc1	inactive: -18.6%	
Cc1ccc(S(=O)(=O)N2CCCCC2)cc1NC(=O)COC(=O)CN1C(=O)NC2(CC(C)CC(C)(C)C2)C1=O (configuration not stated)		inconclusive: 29.1 µM [inhibitor, single point]
COCCCNC(=O)c1cnc2c(-c3ccc(F)cc3)c(C)nn2c1C		inconclusive: 25.9 µM [inhibitor, single point]
Cc1ccc(NC(=O)CN(C)C(=O)COC(=O)/C=C/c2cccs2)cc1	inactive: -22.7%	
N#CC(=C=[N-])c1nc2ccccc2nc1-[n+]1cccc(NC(=O)c2cccs2)c1		active: 6.51 µM
COc1cccc2c(O)cc(=O)n(C)c12	inactive: -27.5%	
CCC(=O)Nc1cccc(C(=O)/C=C/c2ccccc2)c1		active: 5.17 µM
COC(=O)c1ccc(N)c(N=CC2=C(O)CC(C)(C)CC2=O)c1		inconclusive: 29.1 µM [inhibitor, single point]
Cc1nc(SCC(=O)NC(=O)NCCC(C)C)c2c(-c3cccs3)csc2n1		inconclusive: 29.1 µM [inhibitor, single point]
CCCc1ccc(S(=O)(=O)NCCc2ccncc2)cc1		inconclusive: 23.1 µM [inhibitor, partial curve]
CC(=O)/C(=C/c1ccccc1)C(=O)Nc1ccccc1C		active: 4.61 µM

SMILES	activity change, negative = growth inhibition	Potency
O=C(c1ccc(Br)cc1)N1CCN(CCc2ccncc2)CC1		inconclusive: 18.4 µM [inhibitor, partial curve]
COc1ccc(-c2ncccc2OC(=O)C23CC4CC(CC(C4)C2)C3)cc1		active: 23.1 µM
COc1ccccc1NC(=S)N1CC(C)(C)C1=O	inactive: 1.39%	
Cc1ccccc1NC(=O)c1ccc([N+](=O)[O-])o1		active: 11.6 µM
O=C1c2ccccc2C(=O)N1CCCn1ccnc1	inconclusive: -30.5% [inhibitor]	
CCOC(=O)CC1(NC(=O)C2CCC(=O)N(Cc3ccccc3F)C2)CCCCC1 (configuration not stated)		inconclusive: 29.1 µM [inhibitor, single point]
CN(C)c1ccc(S(=O)(=O)NCC(=O)N2CCN(c3ccccc3)CC2)cc1[N+](=O)[O-]	inactive: -2.91%	
O=S1(=O)CC(N2CCN(CC3CC3)CC2)CN1Cc1ccc(F)cc1 (configuration not stated)	inconclusive: -30.2% [inhibitor]	
Brc1cccc(-c2nnc(CN3CCN(c4ccccn4)CC3)o2)c1	inactive: -18%	
CC(=O)Nc1nc2n(n1)C(c1ccc(F)cc1)C=C(c1ccccc1)N2 (configuration not stated)		active: 17.8 µM
CC(=O)N1C[C@@H](CO)[C@@H](N(C)C(=O)c2ccco2)C[C@H]1c1ccccc1	inactive: -1.14%	
Cc1cc(C)cc(C(O)c2ncc(-c3cccc(C(F)(F)F)c3)[nH]2)c1 (configuration not stated)		inconclusive: 16.4 µM [inhibitor, partial curve]
Cc1cc(NC(=O)CSc2nc(C3CCCCC3)nc3ccccc23)no1		inconclusive: 29.1 µM [inhibitor, single point]
CCOC(=O)c1c(NC(=O)c2ccc(S(=O)(=O)N3CCC(C)CC3)cc2)sc2c1CCN(CC)C2		active: 20.6 µM
COC(=O)[C@]12CCCCC=C1N(Cc1ccccc1)C(=O)[C@H](CC(=O)NCCC(C)C)C2		inconclusive: 18.4 µM [inhibitor, single point]
CCOC(=O)c1cc(C)n(CC2CCC(C(=O)Nc3cccc(C)c3)CC2)c1C (configuration not stated)		inconclusive: 29.1 µM [inhibitor, single point]
C=Cc1ccc(Cn2nc(-c3ccc(C)cc3)ccc2=O)cc1		inconclusive: 29.1 µM [inhibitor, single point] and inconclusive: 20.6 µM [inhibitor, single point]
C#CC[N+](C)(C)C(C#Cc1ccccc1)CC=C (configuration not stated)		active: 18.4 µM
Cc1cc(OCc2nn[nH]n2)c2c(C)c(Cc3ccccc3)c(=O)oc2c1	inactive: -17.4%	
Cc1cccc(-n2cc(-c3ccccc3)c3c(NC4CCCC4)ncnc32)c1		active: 16.4 µM
COC(=O)C1=C(C)NC(=O)C1(NC(=O)c1cc(OC)c(OC)c(OC)c1)C(F)(F)F (configuration not stated)	inactive: 4.28%	
CSc1ccc(C(=O)C2CCCN(C(=O)c3ccsc3)C2)cc1 (configuration not stated)		inconclusive: 29.1 µM [inhibitor, single point]
COc1cccc(CNC(=O)N2CCN(c3ccccc3Cl)CC2)c1		inconclusive: 16.4 µM [inhibitor, single point]
CC1=C(C(=O)OC2CCCC2)C(c2coc3ccccc3c2=O)C2=C(CC(C)(C)CC2=O)N1 (configuration not stated)		inconclusive: 18.4 µM [inhibitor, single point]
COc1ccc(OC)c(C(c2nnnn2CCc2ccccc2)N2CCN(c3ccccc3)CC2)c1 (configuration not stated)		active: 35.5 µM
